The list shows a part of the results. Measured with an extract: partners may take part in the binding.

The target of one assay is T1, FLI1 (endogenous, THP-1 nuclear extract) (UniProt Q01543).
T1 sequence: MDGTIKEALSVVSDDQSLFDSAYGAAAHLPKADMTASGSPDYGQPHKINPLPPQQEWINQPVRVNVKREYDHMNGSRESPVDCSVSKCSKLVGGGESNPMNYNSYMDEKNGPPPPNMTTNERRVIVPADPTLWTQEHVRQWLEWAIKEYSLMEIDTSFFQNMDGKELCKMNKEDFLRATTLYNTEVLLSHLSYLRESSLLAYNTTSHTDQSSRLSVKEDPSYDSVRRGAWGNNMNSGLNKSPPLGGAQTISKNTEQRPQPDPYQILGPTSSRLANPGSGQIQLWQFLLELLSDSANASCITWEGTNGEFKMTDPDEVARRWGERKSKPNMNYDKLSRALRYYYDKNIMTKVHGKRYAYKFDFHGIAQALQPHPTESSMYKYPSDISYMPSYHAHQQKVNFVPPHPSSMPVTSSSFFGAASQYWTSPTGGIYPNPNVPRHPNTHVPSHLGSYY
In words: nuclear extract protein-binding microarray (nextPBM). To be noted: 20 mM HEPES pH 7.9, 100 mM NaCl, 1 mM DTT, 0.2 mg/mL BSA, 0.02% Triton X-100, 2% milk, 0.4 mg/mL salmon testes DNA; 1 h; temperature not stated; high values mean tight binding; double strand, one strand shown; sequences stand for … in GCCTAGCAC…GTGCTAGGTCTTGATTCGCTTGACGCTGCTG
In turn, CATCCTACTTTAAGTTTCTG returned a binding signal of 0.451 z-score. AGCACTTTTAATTGGCAGAG registered a binding signal of -0.0545 z-score. The same measure, in the same setting: in the case of AGAAACACTGCGTGAAACTG it was -0.799 z-score. Regarding TCTTGTAAAGCTTTTCCAAT, the binding signal was -0.048 z-score. Still for that read-out and setting: the same measure for GTCTTATTTCCTCAAAATAG: 1.39 z-score; for TTGGTAAAAGAGCAGCACGA: -0.263 z-score. On the same count and under the same terms, the same measure for CGCACCCCGCCTCCCTGGCC: -0.704 z-score; for AGAGCCTGACACCGCTGCTC: -0.0559 z-score. Sequence GAGAGTAGCCTAGTCCCTAG displayed a binding signal of -1.66 z-score. Same read-out and setting: the same measure for TCAGAAGAGAATAGGAGTCC: -0.365 z-score. The same measure, in the same setting: the same measure for GGTCCGTCCTCTTCCGGTGT: 4.51 z-score.

GCTTTAACTGCCTGAAACTG gave a binding signal of -0.513 z-score. On the same count and under the same terms, the same measure for ATTGTATTTCATCACAGTCT: -0.364 z-score; for ACTTGTGAAGGAAATGAATC: 1.79 z-score; for AGAAGAACTGCGTGAAAGAA: -0.495 z-score.

The sequence AGTCCTGAGTCAGAGGCAAG came in with a binding signal of -0.442 z-score.

CATGAATGAGATTTGGAACT: the binding signal is -0.47 z-score. On the same count and under the same terms, the same measure for CTGCATCCACCCTCTGCCCT: -0.0546 z-score; for AGTAGCAGTCCTGTCATGCG: -0.257 z-score; for AGGCCATTTAGGAATCTTCT: -0.279 z-score. With TAGTAGACTGCGTGAAAGCA, the binding signal was -0.647 z-score. Still for that read-out and setting: the same measure for TCGAGCATCTCCATCTTTCT: -0.7 z-score; for GGAAGTTCACCCATTTGGCA: 2.81 z-score.

For the next assay, the system named is PU.1 (endogenous, THP-1 nuclear extract) + IRF8 (endogenous, THP-1 nuclear extract). The assay is described as above. To be noted: 20 mM HEPES pH 7.9, 100 mM NaCl, 1 mM DTT, 0.2 mg/mL BSA, 0.02% Triton X-100, 2% milk, 0.4 mg/mL salmon testes DNA; 1 h; temperature not stated; high values mean tight binding; double strand, one strand shown; sequences stand for … in GCCTAGCAC…GTGCTAGGTCTTGATTCGCTTGACGCTGCTG
Take TTACTCTGTTACAAAATTGC: the binding signal was -0.587 z-score. The same measure, in the same setting: in the case of CCCATCACATATCTGTATCC it was -0.236 z-score; in that of AGCTTTAAGAGCCAGTGCTC, -0.82 z-score; in that of ATGAATAAATATCACTTGAT, -0.933 z-score.

In the case of TGAAATAATCCTGAGCTTTT, the binding signal is -0.0178 z-score. The same measure, in the same setting: the same measure for TATACAGAGGAGAATAATTA: -0.138 z-score; for GCTATACTAAAAAGACATAT: 0.476 z-score; for GTGGGTTTGTCATTTGTATC: -0.979 z-score. Same read-out and setting: in the case of TTCCGGACCCTGCATTTCAC it was -0.413 z-score. As for GGAGGAAGTCTTGAGGTGTT, the binding signal amounted to 0.356 z-score. TATTCATATGCGGGCAGGAA: the binding signal was -0.0462 z-score. Still for that read-out and setting: the same measure for CTGCTTTTGAGGACCTCAGG: -1.37 z-score.

Consider TCAGTGGGGAAAGAATGATC, for which the binding signal is -1.37 z-score. The same measure, in the same setting: the same measure for TTACATGGATGGGGATGTGG: 0.0452 z-score; for CCACCCTCACTGCCTCTCTG: 2.54 z-score. In the case of TACAACAAAAACTACTATTC, the binding signal was -0.0817 z-score. Regarding CATCCTACTTTAAGTTTCTG, the binding signal stood at 0.28 z-score. The same measure, in the same setting: in the case of AGCACTTTTAATTGGCAGAG it was -0.498 z-score; in that of AGAAACACTGCGTGAAACTG, 1.42 z-score. Still for that read-out and setting: the same measure for TCTTGTAAAGCTTTTCCAAT: 0.719 z-score; for GTCTTATTTCCTCAAAATAG: -1.45 z-score. On to TTGGTAAAAGAGCAGCACGA, for which the binding signal was -0.696 z-score.

Turning to CGCACCCCGCCTCCCTGGCC, the binding signal was determined as 0.873 z-score. The same measure, in the same setting: in the case of AGAGCCTGACACCGCTGCTC it was -0.0878 z-score; in that of GAGAGTAGCCTAGTCCCTAG, -0.559 z-score. Take TCAGAAGAGAATAGGAGTCC: the binding signal was found to be 0.884 z-score. Still for that read-out and setting: the same measure for GGTCCGTCCTCTTCCGGTGT: 0.368 z-score; for GCTTTAACTGCCTGAAACTG: 1.16 z-score; for ATTGTATTTCATCACAGTCT: -0.683 z-score. Still for that read-out and setting: the same measure for ACTTGTGAAGGAAATGAATC: -0.0286 z-score; for AGAAGAACTGCGTGAAAGAA: -0.0847 z-score; for AGTCCTGAGTCAGAGGCAAG: -0.0515 z-score. Still for that read-out and setting: in the case of CATGAATGAGATTTGGAACT it was -0.673 z-score. Consider CTGCATCCACCCTCTGCCCT, for which the binding signal was found to be 2.72 z-score. AGTAGCAGTCCTGTCATGCG: the binding signal was -0.473 z-score. Consider AGGCCATTTAGGAATCTTCT, for which the binding signal is 0.659 z-score. TAGTAGACTGCGTGAAAGCA: the binding signal was found to be 0.112 z-score.

TCGAGCATCTCCATCTTTCT: the binding signal was -0.0744 z-score. As to GGAAGTTCACCCATTTGGCA, the binding signal was -0.0624 z-score.

Values taken from publication PMC6451091.
